Results as given in PMC4336329 (PLoS ONE, 2015).
Screen size: about 310,000 compounds; about 2,200 (0.71%) showed an effect of 50% or more. The effect is printed as a negative number. The list shows a part of the results.

Target: human ether-à-go-go-related gene (hERG) potassium channel (human, UniProt Q12809)
Assay: primary screen, population patch clamp on CHO cells stably expressing hERG

human ether-à-go-go-related gene (hERG) potassium channel, sequence (Q12809 whole entry, looked up): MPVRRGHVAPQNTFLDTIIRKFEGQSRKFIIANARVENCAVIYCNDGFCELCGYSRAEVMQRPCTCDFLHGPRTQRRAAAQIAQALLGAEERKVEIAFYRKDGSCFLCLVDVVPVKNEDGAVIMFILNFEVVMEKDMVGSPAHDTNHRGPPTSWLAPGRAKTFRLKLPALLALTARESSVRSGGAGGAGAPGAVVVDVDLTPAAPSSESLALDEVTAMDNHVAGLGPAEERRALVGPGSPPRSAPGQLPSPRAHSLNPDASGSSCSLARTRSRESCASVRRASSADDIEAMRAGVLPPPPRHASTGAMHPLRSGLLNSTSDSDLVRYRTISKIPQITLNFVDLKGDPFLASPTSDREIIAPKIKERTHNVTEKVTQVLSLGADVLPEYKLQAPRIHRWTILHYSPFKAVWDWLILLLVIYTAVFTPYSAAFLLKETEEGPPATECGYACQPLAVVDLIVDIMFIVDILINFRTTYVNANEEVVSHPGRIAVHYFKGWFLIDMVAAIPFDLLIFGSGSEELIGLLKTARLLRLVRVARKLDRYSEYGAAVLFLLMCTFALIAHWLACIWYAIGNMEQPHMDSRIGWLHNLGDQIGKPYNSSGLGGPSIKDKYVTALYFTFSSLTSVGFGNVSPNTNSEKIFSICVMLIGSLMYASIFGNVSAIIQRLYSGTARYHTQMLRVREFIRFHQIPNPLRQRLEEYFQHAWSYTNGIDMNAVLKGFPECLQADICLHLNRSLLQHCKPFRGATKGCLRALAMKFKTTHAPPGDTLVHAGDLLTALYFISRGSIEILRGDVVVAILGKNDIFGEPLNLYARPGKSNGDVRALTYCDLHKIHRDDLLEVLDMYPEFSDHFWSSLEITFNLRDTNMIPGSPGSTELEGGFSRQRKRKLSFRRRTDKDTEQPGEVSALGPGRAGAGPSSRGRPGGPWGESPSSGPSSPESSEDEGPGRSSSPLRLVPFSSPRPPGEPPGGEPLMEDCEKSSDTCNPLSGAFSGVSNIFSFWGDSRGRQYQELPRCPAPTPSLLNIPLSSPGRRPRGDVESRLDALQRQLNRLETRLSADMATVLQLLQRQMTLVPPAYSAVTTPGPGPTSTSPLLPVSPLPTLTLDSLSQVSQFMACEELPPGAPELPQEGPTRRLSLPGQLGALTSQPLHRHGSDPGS

| SMILES | hERG current change (%, negative = inhibition) at 1uM [%] |
| --- | --- |
| CC(C)Cn1nc(C(=O)OCC(=O)NCC(F)(F)F)c2ccccc2c1=O | 6.89 |
| COc1cccc(CCc2nnc(CCC(=O)NCCc3cccc(C)n3)o2)c1 | 19.7 |
| O=C(Nc1ccc(S(=O)(=O)N2CCCCC2)cc1)C1CC1 | 10.4 |
| Cc1c(NC(=O)C(C)OC(=O)c2cccs2)c(=O)n(-c2ccccc2)n1C (stereo not shown) | 5.84 |
| O=C(CNC(=O)c1cccc(F)c1)OCC(=O)N1CCCCC1 | 3.21 |
| COC(=O)Nc1nc(C)c(C(=O)N(C)C)s1 | 11.2 |
| CN(C)S(=O)(=O)c1ccc(C(=O)OCn2nnc3ccccc3c2=O)cc1 | 0.324 |
| C=CCn1c(SCC(=O)N(C)C)nc2cc(C(=O)O)ccc2c1=O | 27.8 |
| Cc1ccc(Sc2c([N+](=O)[O-])c(C)nn2C)cc1 | 13.8 |
| CCn1c(SCC(=O)NCCc2ccccc2)nnc1C(C)C | 12 |
| O=C1CSC(=S)N1c1cccnc1 | 3.32 |
| COc1cccc(-c2cc(C(F)(F)F)n3ncc(C(=O)N4CCc5ccccc5C4)c3n2)c1 | 8.03 |
| Oc1c(C=NCc2ccc(F)cc2)[nH]c2ccc(Br)c(Cl)c12 | 5.29 |
| COc1ccc(CC(=O)Nc2cc(C)ccn2)cc1OC | 14.2 |
| CCCCCCc1ccc(OCC(=O)O)cc1OCC(=O)O | 7.98 |
| COc1ccc(-c2nc(SC)n(S(=O)(=O)c3ccccc3)n2)cc1 | 5.99 |
| Cc1ccc2nc(SCC(=O)Nc3ccc(C(N)=O)cc3)[nH]c2c1 | 14 |
| COc1ccc2oc(C(=O)OCC(=O)N3CCN(c4ccccc4)CC3)c(C)c2c1 | 18.2 |
| CC(NC(=O)c1ccc(Br)o1)C1CCCO1 (stereo not shown) | 13.3 |
| C/C(Cl)=C/CSc1nn2c(=O)c3ccccc3nc2s1 | 2.8 |
| Br.Clc1ccccc1CNCC1CCCO1 (stereo not shown) | 5.32 |
| S=c1nccc(-c2ccc(Cl)cc2)[nH]1 | 14 |
| COC(=O)N/N=C(\C)c1cccs1 | 17.7 |

| SMILES | hERG current change (%, negative = inhibition) at 1uM [%] |
| --- | --- |
| CCCCN1C(=S)NC[C@@H]1Cc1ccc(O)cc1 | 9.11 |
| Cc1cccc(C(=O)NCc2nnc(SCC(=O)NC3=NCCS3)n2C)c1 | 14.2 |
| CC(Sc1nccn1C)C(=O)c1ccc(Br)cc1 (stereo not shown) | 13.7 |
| COCCNC(=O)c1cc(S(=O)(=O)N(C)c2ccccc2OC)ccc1C | 9.97 |
| CCC(OC(=O)CCc1nc2ccccc2[nH]c1=O)C(=O)c1ccccc1 (stereo not shown) | 17.6 |
| CCc1nnc(NC(=O)CSc2nc(-c3ccccc3)cc(-c3ccc(OC)cc3)c2C#N)s1 | 25 |
| Cc1cc(C(=O)COC(=O)c2cccn2C)c(C)n1Cc1ccco1 | 10.6 |
| CC(=O)c1c(C)[nH]c(C(=O)OCC(=O)NCCC2=CCCCC2)c1C | 11.9 |
| O=S(=O)(Nc1ccccc1)c1cccc2nonc12 | 17.4 |
| O=C(c1ccc(OC2CCN(CCc3ccccc3)CC2)cc1)N1CCC(CO)CC1 | 15.4 |
| O=S(=O)(Nc1ccccn1)c1ccc(Cl)c2ccccc12 | 9.64 |
| COC(=O)c1ccccc1NC(=S)N1CCN(c2ccc(OC)cc2)CC1 | 14.9 |
| CC(=O)c1ccc(NC(=O)C2CC(=O)Nc3nc4ccccc4n32)cc1 (stereo not shown) | 11.9 |
| COc1ccnc(Oc2ccc(F)cc2)c1C(=O)N/C=N/OCc1c(Cl)cccc1Cl | 3.34 |
| CCc1ccc(N2C(=O)NC(=O)/C(=C/c3ccsc3)C2=O)cc1 | 12.4 |
| N#CCC(=O)Nc1ccc(C(=O)OCC(=O)c2ccc3c(c2)OCCO3)cc1 | 8.35 |
| CN1CCC(N(C)C(=O)COc2ccccc2-c2ccccc2)CC1.Cl | -10.5 |
| CC1=CC(C)(C)N2C(=O)C3(NCCc4c3[nH]c3ccccc43)c3cccc1c32 (stereo not shown) | 30.2 |
| COc1ccc(/C=N/NC(=O)Cn2nc(C)c([N+](=O)[O-])c2C)cc1 | -1.96 |
| CC(C)(C)n1nnnc1C(c1cccnc1)N1CCN(c2ccccn2)CC1 (stereo not shown) | 13 |
| CC(=O)Nc1cccc(/C(C)=N/NC(=S)NC(C)C)c1 | 5.37 |
| Cn1c(CNC(=O)C2CCCCC2)cc2cc(Cl)ccc21 | 8.7 |
| O=C(c1ccc(Cl)cc1)N1CCN(C(=O)c2ccco2)CC1 | -1.02 |

| SMILES | hERG current change (%, negative = inhibition) at 1uM [%] |
| --- | --- |
| COc1cc(/C=N/NC(=S)Nc2cccc(C(=O)O)c2)cc(OC)c1OC | 22.7 |
| CCc1noc(C)c1C(=O)Nc1ccc(-c2nnc3n2CCCCC3)cc1 | 11.6 |
| CC1CCCN(S(=O)(=O)c2ccc(C(=O)Nc3nnc(-c4ccccc4Cl)o3)cc2)C1 (stereo not shown) | 19.8 |
| COC(=O)c1oc2ccc(Br)cc2c1NC(=O)c1ccccc1 | 11 |
| NS(=O)(=O)c1ccc(NC(=O)c2ccc3nccnc3c2)cc1 | 8.42 |
| COC(=O)c1c(NC(=O)CCC(=O)O)sc(Cc2ccccc2)c1C | 8.48 |
| O=C(c1ccccc1F)N(Cc1ccccc1)Cc1ccccc1 | 16.6 |
| CCn1c(SCc2nc(-c3ccccc3)no2)nnc1-c1cccs1 | 3.84 |
| CCN1C(=O)[C@H]2[C@@H](c3ccc(-c4cccc(Cl)c4)c(OC)c3)N[C@@](CC(C)C)(C(=O)OC)[C@H]2C1=O.O=C(O)C(F)(F)F | 16.4 |
| Cl.O=C(CN1CCCC1)N1c2ccccc2Sc2ccc(C(F)(F)F)cc21 | 13 |
| COc1ccc(-n2nc3c(c2NC(=O)c2ccc4c(c2)OCO4)CS(=O)(=O)C3)cc1 | 12.3 |
| O=C(NC12CC3CC(CC(C3)C1)C2)c1ccccc1O | 5.33 |
| C/C(N)=C(/C#N)C(=O)COC(=O)CCC1CCCC1 | -1.84 |
| Cc1cc(=O)[nH]c2c1cnn2C(C)c1ccccc1 (stereo not shown) | 19.6 |
| COc1ccc(N2CCN(C(=O)c3ccc(C)c(NC(=O)c4ccco4)c3)CC2)cc1 | -53.7 |
| Cc1cccc(C)c1OCc1cc(C(=O)N2CCN(C3CCCC3)CC2)no1 | -6.31 |
| O=C(Nc1nnc(S(=O)(=O)N2CCOCC2)s1)c1ccccc1 | 8.42 |
| CCN(CC)C(=O)N1CCN(c2c([N+](=O)[O-])c(=O)oc3ccccc23)CC1 | -0.622 |
| COc1ccc(CC(=O)Nc2ccc3c(C)cc(=O)oc3c2)cc1OC | 13.6 |
| Cc1ccc(NC(=O)CSc2nnc(-c3ccncc3)n2C)cc1C | 17.3 |
| COc1ccc(-c2nnnn2C(C)C)cc1 | 11.1 |
| Cc1cc(C)n(-c2nnc(C)n2NC(=O)c2cccc(Cl)c2)n1 | 5.39 |
| CN1CCc2c(sc3c2C(=O)NC(c2cn(Cc4ccccc4)c4ccccc24)N3)C1 (stereo not shown) | -0.497 |

| SMILES | hERG current change (%, negative = inhibition) at 1uM [%] |
| --- | --- |
| Cn1nnnc1Sc1ncnc2scc(-c3ccc(Cl)cc3)c12 | 10.9 |
| COc1ccc(CNC(=O)COC(=O)c2cc(-c3cccs3)nc3ccccc23)cc1OC | 18.5 |
| Fc1ccc(N/N=C(/c2ccccc2)c2ccccn2)cc1 | 3.53 |
| COc1ccc(CC(=O)OCC(=O)NCc2ccccc2Cl)cc1 | 14.8 |
| O=C(Nc1nc(-c2ccc(Cl)cc2Cl)cs1)c1ccc(OCC2CCCO2)cc1 (stereo not shown) | 9.41 |
| CCN1CCN(C(=O)c2ccc(CS(=O)(=O)Cc3ccccc3C)o2)CC1 | 17.2 |
| COc1cc(C(=O)NC(=S)Nc2ccc3oc(=O)ccc3c2)cc(OC)c1OC | 9.79 |
| CC1(C(=O)NCCCN2CCOCC2)Oc2cccnc2NC1=O (stereo not shown) | 12.7 |
| O=C(c1ccccn1)c1conc1C(=O)c1ccc(Br)cc1 | -11.2 |
| CCCCN(CCCC)C(=O)c1sc2nc(N3CCOCC3)c3c(c2c1N)CCCC3 | 7.71 |
| C/C(=N\O)c1ccccc1C(=O)O | 6.94 |
| COc1ccccc1CC1S/C(=N/N=C/c2ccco2)NC1=O (stereo not shown) | 15 |
| CNP1(NC)=Nc2nn(-c3ccccc3)c(N)c2C(c2ccccc2)=N1 | 13.5 |
| CC1=CC(C)(C)NC(=O)N1c1ccc(C)cc1 | 5.77 |
| O=C(c1cccs1)n1nc(-c2ccco2)nc1SCc1ccccc1 | 9.25 |
| CC(=O)c1ccc(OCC(C)C)c(CC(C(N)=O)C(N)=O)c1 | 14.3 |
| CCc1ccc(NC(=O)CNC(=O)Cn2ccc3ccccc3c2=O)cc1 | 14.8 |
| Cc1cc(-c2ccccc2C(=O)NCc2ccccc2)on1 | 14.4 |
| COc1cccc(-c2nc(CS(=O)(=O)CC(=O)NCc3ccc(Cl)cc3)c(C)o2)c1 | 9.11 |
| COC(=O)C1C(C(=O)OC)C1(c1ccccc1)c1ccccc1 (stereo not shown) | 13.8 |
| O=C(CSc1ccc(-c2cccs2)nn1)N1CCCCC1 | 8.19 |
| Cn1c(SCC(=O)Nc2nc3ccccc3s2)nnc1-c1ccccc1 | 9.6 |
